This passage reports percent labeling results from PubChem BioAssay AID2202238 (Ras Initiative Chemistry Research Team, Frederick National …, 2025).

The test deals with GTPase KRas (Homo sapiens) (UniProt P01116). Put plainly: Covalent labelling of cysteine mutants by fragments, read by mass spectrometry (AID 2202238). On the set-up: protein at 5 µM with 500 µM competing thiol for 1.5 h. Conditions: KRAS G12D cysteine mutants, disulfide tethering, MALDI-TOF labeling, stronger effect = higher value, fragment at 500 µM.
The mark [1] stands for this setting: measured here: G75C mutant labeling.
[2] abbreviates: measured here: H94C mutant labeling.
Where [3] appears, read: measured here: I36C mutant labeling.
[4] abbreviates: measured here: L120C mutant labeling.
Setting [5] is: measured here: M67C mutant labeling.
Where [6] appears, read: measured here: M72C mutant labeling.
[7] abbreviates: measured here: N86C mutant labeling.
The mark [8] stands for this setting: measured here: P121C mutant labeling.
The mark [9] stands for this setting: measured here: S122C mutant labeling.
Setting [10] is: measured here: S136C mutant labeling.
[11] abbreviates: measured here: G60C mutant labeling.
[12] abbreviates: measured here: N26C mutant labeling.

The list shows a part of the results. The main result of the screen is listed elsewhere. These columns were measured beside it and carry no call.

Chain of UniProt P01116 (P01116 whole entry, looked up, the tested form may be a part): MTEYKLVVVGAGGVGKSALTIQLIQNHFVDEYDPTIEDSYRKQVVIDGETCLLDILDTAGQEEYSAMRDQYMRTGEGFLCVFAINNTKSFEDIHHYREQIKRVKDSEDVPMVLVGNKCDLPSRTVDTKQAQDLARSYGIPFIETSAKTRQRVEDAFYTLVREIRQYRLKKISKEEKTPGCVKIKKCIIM

With `Cn1cc(CN(Cc2cnn(C)c2)C(=O)CCS)cn1`, the percent labeling by setting is: under setting [1], 10.5%; under setting [2], 33.3%; under setting [3], 37.5%; under setting [4], 28.4%; under setting [5], 39.3%; under setting [6], 16.9%. Besides, the percent labeling under setting [7] was 18.6%, the percent labeling under setting [8] was found to be 32.2%, the percent labeling under setting [9] was 36.6% and the percent labeling under setting [10] turned out to be 54.1%.

With `O=C(CCS)N1CCC(n2cnc3ccccc32)CC1`, the percent labeling is, setting by setting: under setting [1], 21.6%; under setting [2], 38.2%; under setting [3], 45.6%; under setting [4], 43.3%; under setting [5], 51%; under setting [6], 42.3%. The percent labeling reads like this: under setting [7], 28.9%; under setting [8], 40.3%; under setting [9], 34%; under setting [10], 57.5%.

`CC(C)(O)c1n[nH]c(CNC(=O)CCS)n1` gave a percent labeling under setting [1] of 15.6%; a percent labeling under setting [2] of 20.6%; a percent labeling under setting [3] of 31.6%; a percent labeling under setting [4] of 30.2%; a percent labeling under setting [5] of 28.2%; a percent labeling under setting [6] of 15.6%. Further, the percent labeling runs as follows: under setting [7], 21.1%; under setting [8], 33.2%; under setting [9], 37.5%; under setting [10], 39.4%.

As to `N#Cc1cc2c([nH]c1=O)CCC(NC(=O)CCS)C2` (centres undefined), the percent labeling runs as follows: under setting [1], 13.5%; under setting [2], 35%; under setting [3], 47.3%; under setting [4], 28.7%; under setting [5], 47.5%; under setting [6], 22.5%. In addition, the percent labeling is 15.8% under setting [7], 37.8% under setting [8], 32.9% under setting [9] and 57.2% under setting [10].

For the compound `Cn1ccnc1[C@H]1[C@H](C(=O)NCCS)CCC(=O)N1C1CC1`, the percent labeling is 29.9% under setting [11]; 5% under setting [1]; 27.5% under setting [2]; 24.1% under setting [3]; 14.5% under setting [4]; 29% under setting [5]. Also, the percent labeling under setting [6] came out at 6.8%; the percent labeling under setting [12] is 25.5%; the percent labeling under setting [7] is 16.3%; the percent labeling under setting [8] was found to be 23.8%; the percent labeling under setting [9] was 19.7%; the percent labeling under setting [10] is 36.7%.

On to `Cc1nc(N2CCN(C(=O)CCS)CC2)n[nH]1`, for which the percent labeling was 15.8% under setting [1]; 22.9% under setting [2]; 34% under setting [3]; 26.7% under setting [4]; 30.2% under setting [5]; 14.5% under setting [6]. Also, the percent labeling is, setting by setting: under setting [7], 22.5%; under setting [8], 26.8%; under setting [9], 36.9%; under setting [10], 52.1%.

In the case of `Cc1nc(N)c2c(C)c(C(=O)NCCS)sc2n1`, the percent labeling is 14.6% under setting [11]; 7.7% under setting [1]; 13.3% under setting [2]; 11.4% under setting [3]; 15.3% under setting [4]; 13.9% under setting [5]. The same compound yielded a percent labeling under setting [6] of 26.5%; a percent labeling under setting [12] of 36.2%; a percent labeling under setting [7] of 20.5%; a percent labeling under setting [8] of 10.6%; a percent labeling under setting [9] of 10.9%; a percent labeling under setting [10] of 25.3%.

`Cc1nccc(-c2cccc(NC(=O)CCS)c2)n1` had a percent labeling under setting [1] of 15.2%; a percent labeling under setting [2] of 29.7%; a percent labeling under setting [3] of 39.2%; a percent labeling under setting [4] of 30.3%; a percent labeling under setting [5] of 26.3%; a percent labeling under setting [6] of 43.7%. In addition, the percent labeling is, setting by setting: under setting [7], 24.7%; under setting [8], 21.9%; under setting [9], 18.9%; under setting [10], 43.3%.

As to `Cn1cnc2cccc(CNC(=O)CCS)c21`, the percent labeling is 22.9% under setting [1]; 30.5% under setting [2]; 42.5% under setting [3]; 24.2% under setting [4]; 41.4% under setting [5]; 28.4% under setting [6]. For the same compound, the percent labeling by setting is: under setting [7], 24.2%; under setting [8], 34.4%; under setting [9], 32.9%; under setting [10], 50.1%.

Consider `O=C(NCCS)c1occc1CN1C(=O)Cc2ccccc21`, for which the percent labeling by setting is: under setting [11], 29.9%; under setting [1], 17.8%; under setting [2], 24.3%; under setting [3], 12.6%; under setting [4], 16.8%; under setting [5], 26%. This compound also registered a percent labeling under setting [6] of 51%; a percent labeling under setting [12] of 23.7%; a percent labeling under setting [7] of 12.7%; a percent labeling under setting [8] of 16.2%; a percent labeling under setting [9] of 11.2%; a percent labeling under setting [10] of 21.8%.

On to `O=C(NCCS)C1CCN(c2ccc3cccc(O)c3n2)CC1`, for which the percent labeling by setting is: under setting [11], 23%; under setting [1], 8.1%; under setting [2], 13%; under setting [3], 7.9%; under setting [4], 8.1%; under setting [5], 15.4%. Also, the percent labeling under setting [6] amounted to 12.2%; the percent labeling under setting [12] was determined as 22.7%; the percent labeling under setting [7] amounted to 10.4%; the percent labeling under setting [8] was 10.5%; the percent labeling under setting [9] worked out at 5%; the percent labeling under setting [10] amounted to 11.2%.

In the case of `COc1ccc(Br)cc1C1(NC(=O)CCS)CC1`, the percent labeling runs as follows: under setting [1], 17.5%; under setting [2], 44.3%; under setting [3], 38.2%; under setting [4], 25.7%; under setting [5], 36.5%; under setting [6], 39.1%. Further, the percent labeling is, setting by setting: under setting [7], 31.9%; under setting [8], 23.7%; under setting [9], 29.2%; under setting [10], 57.5%.

The compound `Cc1ccc(C(=O)NCCS)cc1-c1cnn(C)c1` yielded a percent labeling under setting [11] of 34.7%; a percent labeling under setting [1] of 16.4%; a percent labeling under setting [2] of 23.1%; a percent labeling under setting [3] of 14.7%; a percent labeling under setting [4] of 22.9%; a percent labeling under setting [5] of 18.5%. For the same compound, the percent labeling is, setting by setting: under setting [6], 56.1%; under setting [12], 53.4%; under setting [7], 16.4%; under setting [8], 17%; under setting [9], 16.9%; under setting [10], 30.7%.

In the case of `CC(NC(=O)c1ccc(Br)o1)C(=O)NCCS` (centres undefined), the percent labeling worked out at 26.6% under setting [11]; 10.8% under setting [1]; 30.5% under setting [2]; 23.2% under setting [3]; 46.6% under setting [4]; 29.6% under setting [5]. Besides, the percent labeling by setting is: under setting [6], 14.4%; under setting [12], 31.5%; under setting [7], 21.6%; under setting [8], 28.4%; under setting [9], 26.7%; under setting [10], 39%.

As for `O=C(CCn1c(=O)[nH]c(=O)c2ccccc21)NCCS`, the percent labeling was found to be 38.1% under setting [11]; 13.2% under setting [1]; 34% under setting [2]; 29.4% under setting [3]; 35.3% under setting [4]; 30.7% under setting [5]. The percent labeling by setting is: under setting [6], 19.3%; under setting [12], 33.2%; under setting [7], 25.2%; under setting [8], 37.2%; under setting [9], 25.1%; under setting [10], 39.5%.
